# Measurements taken from PubChem BioAssay AID1461 (National Center for Advancing Translational Sciences (NCATS), 2008).
# In all, about 220,000 compounds went through this assay and about 2,300 (1%) were called active. This list was built around the results that the source calls inconclusive (neither active nor inactive); the mix of calls is not that of the screen. Calls follow the shape of the dose curve; as a rule, active = well fitted inhibition curve with a large enough effect; inconclusive = small, poorly fitted or top-dose-only effect, or effect the other way; inactive = no such curve, though single readings can be large or run the other way. No potency is given beside an inconclusive call; the fits are too rough.
# Biological target: Neuropeptide S receptor (Homo sapiens) (UniProt Q6W5P4)
# Assay: qHTS Assay for Antagonists of the Neuropeptide S Receptor: cAMP Signal Transduction; also: nearly all actives have a fitted effect of over 50% in size
# Settings: CHO-NPSR cells, cAMP TR-FRET, antagonist mode; activity change, negative = inhibition: at 38.3 µM (top of the series) unless noted
# % is scaled to controls: 0 for no effect and ±100 for the full control effect; potency is read from the fitted curve at half-maximal effect; tags tell the direction and shape of the fitted curve.
# Chain of UniProt Q6W5P4 (Q6W5P4 whole entry, looked up): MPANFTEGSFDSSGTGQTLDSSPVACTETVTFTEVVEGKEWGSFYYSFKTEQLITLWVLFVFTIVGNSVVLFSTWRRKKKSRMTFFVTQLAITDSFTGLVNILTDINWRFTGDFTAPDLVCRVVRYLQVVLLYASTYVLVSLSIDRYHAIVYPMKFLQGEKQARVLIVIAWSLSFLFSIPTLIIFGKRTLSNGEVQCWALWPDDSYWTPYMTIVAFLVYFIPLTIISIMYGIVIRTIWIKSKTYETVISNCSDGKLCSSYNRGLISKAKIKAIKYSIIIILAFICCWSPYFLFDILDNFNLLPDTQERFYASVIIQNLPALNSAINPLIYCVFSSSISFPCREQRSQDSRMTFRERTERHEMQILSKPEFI
SMILES,"activity change, negative = inhibition",Potency
Cc1ccc(C(=O)CN2CCC(NC(=O)C3CCCCC3)CC2)cc1,inactive: -13.4% [at 46.1 µM],–
CC(C)(C)C1CCC(=NNC(=S)Nc2cccnc2)CC1 (centres undefined),–,"inconclusive [inhibitor, single point]"
Cc1ccc(-c2nn3c(C)nnc3c3ccccc23)cc1S(=O)(=O)NC(C)c1ccccc1 (centres undefined),–,"inconclusive [inhibitor, partial curve]"
COc1cccc(OCCOc2ccccc2OC(C)C)c1,–,"inconclusive [activator, partial curve]"
CCOCCN1CCN(c2c(CC)c(C)nc3cc(-c4cc(OC)cc(OC)c4)nn23)CC1,–,"inconclusive [inhibitor, partial curve, poor fit]"
Cc1c(CCOC(=O)c2cc([N+](=O)[O-])cc([N+](=O)[O-])c2)sc[n+]1CC(=O)c1ccccc1,–,active: 10 µM
CN1CCc2cccc3c2C1Cc1ccc(O)c(O)c1-3 (centres undefined),inactive: -12.1% [at 46.1 µM],–
O=C(CP(=O)(c1ccccc1)c1ccccc1)Nc1cccc(CP(=O)(c2ccccc2)c2ccccc2)c1,–,"inconclusive [inhibitor, single point]"
CCOc1cccc(C(=O)NC(=S)Nc2ccc(N3CCN(CC)CC3)cc2)c1,inactive: 0.703%,–
O=S(=O)(CCN1C=CC(C(F)(F)F)=NCC1)c1ccc(F)cc1,–,"inconclusive [activator, single point]"
CCN(CC)CCNC(=O)c1ccc2c(c1NCCO)C(=O)c1ccccc1C2=O,–,"inconclusive [activator, partial curve]"
Cc1ccc(SCC(=O)c2cc(C)c(OC(=S)N(C)C)c(C)c2)cc1,–,"inconclusive [inhibitor, single point]"
Cc1cccc(Oc2c([N+](=O)[O-])c(=O)n(C)c3ccccc23)c1,–,"inconclusive [activator, single point]"
O=C1C(Cl)=C(NCCN2CCCCC2)C(=O)c2ccccc21,–,"inconclusive [inhibitor, single point]"
Cc1cccc(-c2nnc(SCc3cc(=O)[nH]c4ccccc34)n2C)c1,–,"inconclusive [inhibitor, single point]"
COc1ccc(-c2nc3c(c(=O)[nH]c(=O)n3Cc3ccccc3)n2C)cc1,–,"inconclusive [inhibitor, single point]"
CC(C)(C)n1nnnc1C(c1ccncc1)N1CCN(C2CCCCC2)CC1 (centres undefined),–,"inconclusive [inhibitor, single point]"
Cc1ccc(NC(=O)c2sc3nc(C)nc(N4CCN(c5ccccn5)CC4)c3c2C)c(C)c1,–,active: 12.6 µM
Cc1ccc(C(=O)N/C(=C\c2cccs2)c2nc3ccccc3[nH]2)cc1,–,"inconclusive [inhibitor, partial curve, poor fit]"
C=CCc1cccc(CNc2c(C)n(C)n(-c3ccccc3)c2=O)c1O,–,"inconclusive [inhibitor, partial curve, poor fit]"
CCC(=O)Nc1nc(-c2cc([N+](=O)[O-])cs2)cs1,–,"inconclusive [inhibitor, single point]"
CC12CCC(C(=O)N(c3ccccn3)c3ccccn3)(OC1=O)C2(C)C (centres undefined),–,"inconclusive [inhibitor, single point]"
CC1(c2ccccc2)O[C@@H]2C[C@H]3[C@@H]4CCC5=CC(=O)C=C[C@]5(C)[C@@]4(F)[C@@H](O)C[C@]3(C)[C@]2(C(=O)CO)O1 (some centres undefined),–,"inconclusive [activator, partial curve]"

SMILES,"activity change, negative = inhibition",Potency
Cc1ccc(/C=C2\SC(=S)N(CCC(=O)NNS(=O)(=O)c3ccccc3)C2=O)cc1,–,"inconclusive [inhibitor, single point]"
COc1c(C)cc(Br)cc1C(=O)Nc1ccc(Cc2ccncc2)cc1,–,"inconclusive [inhibitor, single point]"
CC(C)(C)C1=CC(=O)C(=O)C(C(C)(C)C)=C1,–,"inconclusive [inhibitor, single point]"
C=CCn1c(SCc2c(C)noc2C)nnc1C1COc2ccccc2O1 (centres undefined),–,"inconclusive [inhibitor, single point]"
COc1ccccc1NC(=O)Cc1csc(NC(=S)Nc2ccc(C)cc2)n1,inactive: -24.5% [at 46.1 µM],–
FC(F)(F)c1cc(CO[C@H]2CCCN[C@H]2c2ccccc2)cc(C(F)(F)F)c1,–,"inconclusive [activator, partial curve]"
CC1=C(C)/C(=N\OS(=O)(=O)c2ccc(C)cc2)C=CC1=O,–,"inconclusive [inhibitor, single point]"
COCCCNC(=O)CCc1nnc(Cc2ccc(-c3ccccc3)cc2)o1,inactive: -2.15%,–
COc1cccc(-n2c(SCC(=O)Nc3nccs3)nnc2-c2ccoc2C)c1,inactive: -1.07% [at 46.1 µM],–
COc1ccc2nc(NC(=O)c3cnccn3)sc2c1,inactive: -6.74% [at 46.1 µM],–
O=c1c(Cc2c(F)cccc2Cl)c(O)ccn1Cc1ccc2c(c1)OCO2,inactive: -19.2%,–
Cc1ccc(-c2nc(C(Cl)Cl)c3ccccc3n2)cc1,–,"inconclusive [inhibitor, full curve, poor fit]"
Cc1csc2c(=O)sc(NC(=O)c3cccs3)nc12,–,"inconclusive [inhibitor, single point]"
CCCCNC(=O)COC(=O)c1c2c(nc3ccccc13)/C(=C/c1cccs1)CC2,inactive: -49.5%,–
COc1ccc(NC(=O)c2sccc2SCc2cccc(C(F)(F)F)c2)cc1,–,"inconclusive [inhibitor, single point]"
CC1=CC(C)(C)N(S(=O)(=O)c2ccc(C)cc2)c2ccc(C)cc21,–,"inconclusive [activator, single point]"
O=C(CSc1nnc(Cn2nnc(-c3ccccc3)n2)n1-c1ccccc1)Nc1ccccc1,–,"inconclusive [inhibitor, partial curve]"
Cc1cccc2[nH]c3c(N4CCC5(CC4)OCCO5)ncnc3c12,inactive: -3.72% [at 46.1 µM],–
Cc1ccc(NC(=S)c2ccc(N(C)C)cc2)cc1,inactive: -34.7%,–
O=C(Nc1ccccc1)N1CCc2c([nH]c3ccccc23)C1C(F)(F)F (centres undefined),–,"inconclusive [activator, single point]"
O=C(NC(=S)Nc1ccc(Cl)cn1)C(c1ccccc1)c1ccccc1,–,"inconclusive [inhibitor, single point]"
CCOC(=O)c1sc(=S)n(-c2cccc(C(F)(F)F)c2)c1SC,–,"inconclusive [inhibitor, single point]"
COC(=O)CC1C(=O)NCCN1C(=O)CSc1nnc(Nc2ccc(OC)cc2)s1 (centres undefined),inactive: -3.28% [at 46.1 µM],–

SMILES,"activity change, negative = inhibition",Potency
Cc1cc(C(=O)Nc2ccccn2)cs1,–,"inconclusive [inhibitor, single point]"
COC(=O)c1c(NC(NC(=O)C(C)C)C(Cl)(Cl)Cl)sc2c1CCCC2 (centres undefined),–,"inconclusive [inhibitor, single point]"
O=C1c2ccccc2NC(c2ccccc2)N1/N=C/c1ccccc1 (centres undefined),–,"inconclusive [inhibitor, partial curve]"
CSC(SC)=C(C#N)C(=O)c1ccccc1,–,"inconclusive [activator, full curve]"
O=C1CN(C(=O)CSc2nc3cc(Cl)ccc3c(=O)n2Cc2ccccc2)c2ccccc2N1,inactive: -35.3%,–
CCC1C(c2ccccc2)N(C)C(c2ccccc2)CC1(O)c1ccccc1 (centres undefined),–,"inconclusive [inhibitor, single point]"
COc1ccc(Nc2c([N+](=O)[O-])ccc3c2=NC2(CCCCC2)N=3)cc1,–,active: 10 µM
O=C1CSC(c2cn(-c3ccccc3)nc2-c2cc3ccccc3o2)N1Cc1ccccc1 (centres undefined),–,"inconclusive [inhibitor, single point]"
COc1ccc(-c2ccc([C@H]3[C@@H]4C=CCC[C@@]4(C)C(=O)N3Cc3ccccc3)c(F)c2)cc1,–,"inconclusive [inhibitor, single point]"
O=C(Cn1c(=O)c(=O)n(Cc2ccccc2)c2ccc(Cl)cc21)Nc1ccc(F)cc1F,–,"inconclusive [inhibitor, single point]"
CCOC(=O)c1cnc2ccc(OCC)cc2c1NCc1ccccc1OC,–,"inconclusive [inhibitor, single point]"
Cc1c(/C=N/Nc2nc3ccccc3[nH]2)c2ccccc2n1C,–,"inconclusive [inhibitor, single point]"
O=S(=O)(NCCNc1nccc(C(F)(F)F)n1)c1ccccc1,inactive: -5.31%,–
Clc1cccc(CN2CCC(Cc3ccccc3)CC2)c1,inactive: -6.42% [at 46.1 µM],–
O=C(Nc1ccccc1)c1cc2c(=O)c3ccccc3oc2nc1C(F)(F)F,–,"inconclusive [activator, single point]"
Cc1cc2[nH]c(=S)[nH]c2cc1C,inactive: 13.1%,–
N#C/C(=C/c1ccc(N2CCCCCC2)o1)c1ccc(Cl)cc1,–,active: 10 µM
CCOc1cc(NC(=S)NCCCN2CCOCC2)c(OCC)cc1NC(=O)C(C)C,inactive: 8.92%,–
CC1CC(C)(C)Nc2ccc(OC(=O)c3ccco3)cc21 (centres undefined),–,"inconclusive [inhibitor, single point]"
CC(=O)c1ccc(OC(=O)c2cccs2)cc1,inactive: -8.24% [at 46.1 µM],–
CCN1c2ccccc2-c2nc3ccccc3n2C1c1ccncc1 (centres undefined),–,"inconclusive [inhibitor, single point]"
CC(Oc1ccc(C(=O)NC2CCCCC2)cc1)C(=O)O (centres undefined),–,"inconclusive [inhibitor, single point]"
COC(=O)c1cc2c(-c3ccccc3)c(C)c3ccccn3c-2c1C(=O)OC,–,"inconclusive [inhibitor, single point]"
